This is an account of results in PubChem BioAssay AID488969 (Vanderbilt High Throughput Screening Facility, 2010).

In all, about 110,000 compounds were measured (“z-score”: median about -0.1, highest 2% from about 2 on). Some of the results follow. Calls of active or inactive are those of the source.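 How the source made its calls: active means z-score in the third read window above 3 or below -3; inactive means the rest.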 Residues, ends and D or L forms follow the SMILES beside them. *: point of attachment. Boc = CC(C)(C)OC(=O)*

The target in this assay is Metabotropic glutamate receptor 8 (Rattus norvegicus) (UniProt P70579). Kind of assay: mGluR8 Gi/Go-coupled signaling modulation – cell-based, rat, thallium flux, HTS, primary screen (AID 488969). The following applies: HEK293 rat mGluR8, GIRK (G protein-gated inwardly rectifying potassium channel) thallium flux, FluoZin2; at 10 µM; stronger effect = higher value; submaximal glutamate (EC20) added with thallium.
Sequence of UniProt P70579 (P70579 whole entry, looked up): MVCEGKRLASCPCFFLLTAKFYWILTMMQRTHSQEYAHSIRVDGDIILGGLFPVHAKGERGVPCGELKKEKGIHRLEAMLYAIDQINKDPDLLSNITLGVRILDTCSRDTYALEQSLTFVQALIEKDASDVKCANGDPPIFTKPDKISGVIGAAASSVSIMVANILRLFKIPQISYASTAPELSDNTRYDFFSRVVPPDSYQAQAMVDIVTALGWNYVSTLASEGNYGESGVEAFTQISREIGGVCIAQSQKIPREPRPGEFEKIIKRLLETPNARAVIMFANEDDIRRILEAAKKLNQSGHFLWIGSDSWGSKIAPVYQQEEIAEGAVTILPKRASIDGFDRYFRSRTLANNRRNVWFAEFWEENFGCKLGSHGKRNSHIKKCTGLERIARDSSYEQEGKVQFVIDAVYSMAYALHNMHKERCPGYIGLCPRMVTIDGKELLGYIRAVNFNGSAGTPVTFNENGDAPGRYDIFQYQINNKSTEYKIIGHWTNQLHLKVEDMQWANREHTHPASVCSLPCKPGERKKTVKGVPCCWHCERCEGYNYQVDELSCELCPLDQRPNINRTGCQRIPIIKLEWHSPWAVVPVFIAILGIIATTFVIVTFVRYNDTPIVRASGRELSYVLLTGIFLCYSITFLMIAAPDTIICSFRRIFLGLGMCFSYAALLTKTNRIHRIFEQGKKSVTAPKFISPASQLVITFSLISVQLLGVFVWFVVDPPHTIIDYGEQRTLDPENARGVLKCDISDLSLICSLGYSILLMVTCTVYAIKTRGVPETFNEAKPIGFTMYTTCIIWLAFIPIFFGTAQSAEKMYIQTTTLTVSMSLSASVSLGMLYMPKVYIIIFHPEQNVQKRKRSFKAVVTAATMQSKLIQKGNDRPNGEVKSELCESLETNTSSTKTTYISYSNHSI
`Cc1cc(C(C)(C)C)oc1C(=O)N(CC(=O)NC1CCCC1)c1ccc(F)cc1`: the z-score is -0.319.

On to `CC1CCN(C(=O)CCCOc2cc(=O)n(C)c3ccccc23)CC1`, for which the z-score was found to be 0.0485.

In turn, `CCN1CCN(c2nc3c(c(=O)n(C)c(=O)n3C)n2Cc2cccc3ccccc23)CC1` returned a z-score of -0.307.

Regarding `CCC1(COC(NC(=O)c2cccnc2)(C(F)(F)F)C(F)(F)F)COC1`, the z-score is -0.111.

`COC(=O)c1ccc(Sc2ccc(F)cc2)c(N)c1` registered a z-score of -0.17.

As to `CC(C)=NN/C(N)=N/C(=S)Nc1ccc(C)cc1`, the z-score is 0.199.

Regarding `COc1ccc2c(=O)c(-c3ccccc3C)c(C)oc2c1`, the z-score is -0.284.

Molecule `Cc1nn(-c2ccccc2)c(Cl)c1C(=O)NCc1cccs1` showed a z-score of -0.201.

Turning to `COc1ccc(-c2cc(CN3C(=O)c4ccccc4C3=O)on2)cc1`, the z-score is -0.0244.

`N#Cc1c(NC(=O)CSc2nc(-c3ccccc3)cc(C(F)(F)F)n2)sc2c1CCC2` registered a z-score of 0.0217.

`Cc1cc(C)nc(Sc2ncnc3c2oc2ccccc23)n1` yielded a z-score of -0.444.

The molecule `COc1cccc(S(=O)(=O)NCc2ccc3c(c2)OCO3)c1` displayed a z-score of 1.36.

`CCCn1c(CN(C)Cc2ccccc2)nc2c1c(=O)n(C)c(=O)n2C` showed a z-score of -0.000123.

The molecule `Cc1ccc(NC(=O)CSc2nnc(-c3ccncc3)n2N)cc1C` showed a z-score of -0.422.

For the molecule `O=C(CNC(=O)c1ccccc1)OCc1ccc([N+](=O)[O-])cc1`, the z-score was -0.159.

For the molecule `COc1ccc(OC)c(S(=O)(=O)Nc2ccccc2C(F)(F)F)c1`, the z-score was 1.52.

As to `Cc1ccc(OCc2nc(-c3ccccn3)n[nH]2)cc1`, the z-score is -0.23.

The molecule `O=C(Nc1nnc(-c2ccccc2)o1)c1cccc(N2C(=O)CCC2=O)c1` registered a z-score of -0.326.

For `CCOc1cc(C(=O)NC(C)CC)cc(OCC)c1OCC` (stereo not given), the z-score is -0.153.

Turning to `Cc1nc2sc(C(c3cccc(F)c3)N3CCN(C(=O)c4ccco4)CC3)c(O)n2n1` (stereo not given), the z-score was -0.183.

Molecule `O=S(=O)(CCSc1nc2ccccc2o1)Cc1ccccc1` displayed a z-score of -0.248.

Molecule `Cc1ccc(NC(=S)N(CCN(C)C)Cc2cc3cc(C)cc(C)c3[nH]c2=O)cc1` yielded a z-score of -0.129.

Molecule `CCC(C)C(NC(=O)OC(C)(C)C)C(=O)NC(Cc1ccccc1)C(=O)OC` (stereo not drawn) (Boc-Ile-Phe-OMe; configuration not given here) yielded a z-score of -0.0149.

In the case of `CCN(c1ccccc1)S(=O)(=O)c1ccc(Cl)c(NC(=O)COC(=O)c2ccc(O)cc2)c1`, the z-score came to 0.222.

The molecule `CC(NC(=O)/C=C/c1ccco1)c1nc2ccccc2n1Cc1c(Cl)cccc1Cl` (stereo not given) gave a z-score of -0.0115.

Turning to `COc1ccc(CC(=O)Nc2ccc(S(=O)(=O)Nc3nc(C)cc(C)n3)cc2)cc1`, the z-score came out at 0.396.

For the molecule `CNC(=O)/C(=C\C=C\c1ccccc1)NC(=O)c1ccc([N+](=O)[O-])cc1`, the z-score turned out to be 0.113.

In turn, `CCn1ncc(Br)c1C(=O)Nc1nccs1` registered a z-score of 0.199.

Molecule `CC(=O)Nc1ccc(N2C(=O)C3C4CC(=O)C(c5ccccc54)C3C2=O)cc1` (stereo not given) showed a z-score of -0.115.

For the molecule `O=C(NCC(c1cccnc1)N1CCN(c2ccc(F)cc2)CC1)c1cccc(Cl)c1` (stereo not given), the z-score came to 0.0504.

`Cc1[nH]c2ccccc2c1C(=O)COC(=O)C1CC(=O)N(Cc2ccccc2)C1` (stereo not given) showed a z-score of -0.363.

`CC(C)c1ccc(-c2noc(C3CCCN(C(=O)c4ccc(F)cc4F)C3)n2)cc1` (stereo not given): the z-score was -0.983.

Molecule `Cc1ccc(/C=N/N2CCN(Cc3ccc(Cl)cc3)CC2)o1` showed a z-score of -0.259.

For `Cc1ccc(S(=O)(=O)c2cc3ccccc3oc2=Nc2ccc3c(c2)OCO3)cc1`, the z-score was -0.186.

For `O=c1[nH]c(N2CCOCC2)nc2c1CCCC2`, the z-score was -0.139.

Take `O=C(O)C1C2C=CC(C2)C1C(=O)NCCc1cccc(Cl)c1` (stereo not given): the z-score was active: 6.03.

Take `O=c1[nH]c(CSc2nnc(NCCCN3CCOCC3)s2)nc2cc(Cl)ccc12`: the z-score worked out at 0.0343.

On to `O=c1n(S(=O)(=O)c2cccc3cccnc23)c2ccccc2n1S(=O)(=O)c1cccc2cccnc12`, for which the z-score came to 0.161.

Turning to `CC(C)COC(=O)C1C(=O)CC(C)(O)C(C(=O)OCC(C)C)C1c1cccnc1` (stereo not given), the z-score is -0.358.

`CCCCOC(=O)n1c(SCC(=O)N(C)C)nc2ccccc21` had a z-score of 0.293.

`CC(C)N1CC(C(=O)Nc2nc3ccccc3s2)CC1=O` (stereo not given): the z-score was -0.113.

As to `CCc1nnc(NC(=O)CN2CCC(O)(c3ccccc3OC)CC2)s1`, the z-score is -0.0425.

On to `CCc1ccc(CN2CCN(S(=O)(=O)Cc3ccccc3)CC2)cc1`, for which the z-score was -0.261.

Regarding `CC(C)(C)C1CCC(OCC(O)CN2CCN(c3ccccc3)CC2)CC1` (stereo not given), the z-score was -0.235.

For `CCOC(=O)c1c(N)sc(C(O)(C(F)(F)F)C(F)(F)F)c1-c1ccc(F)cc1`, the z-score is -0.231.

Regarding `CCc1nc(SCC(=O)Nc2ccnc3ccccc23)n[nH]1`, the z-score was -0.312.

Regarding `CC1CC(C)CN(C(=O)CSc2nc3ccsc3c(=O)n2Cc2ccccn2)C1` (stereo not given), the z-score was -0.509.

On to `COc1cc(/C=C/C(=O)c2ccc(C)cc2)ccc1OCC#N`, for which the z-score was -0.366.

Molecule `CCCn1c(=O)[nH]c2ccccc21` gave a z-score of -0.219.

`COC(=O)Nc1ncc(CN2CCc3ccccc3C2)s1` returned a z-score of -0.224.

Molecule `COc1cccc(C(=O)/C=C/Nc2ccc(S(=O)(=O)Nc3ccc(C(C)=O)cc3)cc2)c1` displayed a z-score of 0.284.

The molecule `Cc1cc(S(=O)(=O)N2CCOCC2)ccc1F` came in with a z-score of -0.199.

`CCOC(=O)C1=C(C)NC(C)=C(C(=O)OCC)C1c1ccc(Br)o1`: the z-score was -0.356.

In turn, `CC1CCN(c2nc3c(c(=O)[nH]c(=O)n3C)n2Cc2ccccc2Cl)CC1` yielded a z-score of -0.143.

The molecule `O=C(COC(=O)c1cccnc1Nc1cccc(C(F)(F)F)c1)NC1CCS(=O)(=O)C1` (stereo not given) yielded a z-score of -0.275.

Consider `CCN(CC)c1ncnc2c1[nH]c1ccccc12`, for which the z-score was -0.558.

The molecule `CCC(C)N1CCCC1C(=O)Nc1c(C)cc(C)cc1C` (stereo not given) gave a z-score of -0.0125.

Consider `O=C(COC(=O)c1ccc([N+](=O)[O-])s1)NC(c1ccccc1)c1ccccc1`, for which the z-score is -0.115.

As to `Nc1cc(Cl)ccc1Oc1ccc(Cl)cc1`, the z-score is -0.0791.

`CCn1c(CSc2nc3ccccc3s2)nnc1SCC(=O)c1ccc(O)cc1O` came in with a z-score of -0.00868.

On to `O=C(NNC(=O)c1ccncc1)c1ccncc1`, for which the z-score was 0.419.

`Nc1c2c(nc3sc4c(c13)CCCCC4)CCCCC2` displayed a z-score of 0.847.

As for `N/C(=N\c1nc2c(c(=O)[nH]1)CCC2)Nc1cccc2ccccc12`, the z-score was -0.0995.

`CC1CCc2cc(F)ccc2N1C(=O)C1(C)CC1(Cl)Cl` (stereo not given) had a z-score of -0.268.

The molecule `O=C(Nc1ccccc1F)c1ccc(COc2ccc(Cl)cc2Cl)o1` returned a z-score of -0.0451.

The molecule `COc1cccc(N2C(=O)C3CCCN3C2c2ccc(N(C)C)cc2)c1` (stereo not given) registered a z-score of -0.123.

The molecule `COc1ccc(N(C(=O)/C=C/C(=O)Nc2cc(C)on2)C(C(=O)NC2CCCC2)c2ccccc2C)cc1` (stereo not given) displayed a z-score of -1.71.

The molecule `C=CCNC(=O)c1cccn1-c1ccsc1C(=O)OC` gave a z-score of 0.0752.

`CC1=C(C(=O)OC(C)C)C2(O)C(=O)c3ccccc3C2(O)N1` (stereo not given) had a z-score of 0.0714.

Consider `CCCCCn1c(=O)[nH]c2cc(C(=O)NCCCN(CC)CC)ccc2c1=O`, for which the z-score was determined as 0.842.

In turn, `O=C1c2ccccc2C(=O)N1Cc1nc(-c2cccnc2)no1` returned a z-score of -0.318.

The molecule `CC(C)(C)C1CCC(=NNc2ncc(C(F)(F)F)cc2Cl)CC1` (stereo not given) registered a z-score of -0.635.

In turn, `CN(CP(=O)(O)C(O)c1ccccc1)S(C)(=O)=O` (stereo not given) returned a z-score of 0.41.

Molecule `CCCSc1cc(N2CCOCC2)nc(-c2ccccc2Cl)n1` registered a z-score of -0.577.

In turn, `O=C(CSc1ccc(-c2cccs2)nn1)N1CCCCCC1` displayed a z-score of 0.551.

`COc1ccc(CC(=O)NC(C)(C)CC(C)=O)cc1OC` had a z-score of 0.824.

Turning to `CCOC(=O)N1CCN(c2c(NCc3ccccc3OC)c(=O)c2=O)CC1`, the z-score is -0.574.

`O=C(Cn1cc(C(=O)C2CC2)c2ccccc21)NC1CCCC1` had a z-score of 0.162.

For `COc1cc(CNc2ncn[nH]2)cc(Br)c1OC`, the z-score is -0.166.

Turning to `CCCCNC(=O)Nc1ccccc1C(=O)NCc1ccco1`, the z-score amounted to 0.486.

With `O=C(CCc1ccc(S(=O)(=O)NCCc2ccccc2)cc1)Nc1ccc2c(c1)OCCO2`, the z-score was -0.104.

The molecule `COC(=O)c1cc(COc2ccc3oc(C)c(C(=O)OC(C)C)c3c2)c(C)o1` registered a z-score of 0.18.

`CCNc1nc(NCC)nc(SCCOC(=O)Nc2ccccc2)n1`: the z-score is -0.236.

In the case of `CCn1c2ccccc2c2nc3ccccc3nc21`, the z-score is -0.636.

`Cc1nc2ccccc2n1CC(=O)NCCN1CCCC1` came in with a z-score of 0.333.

In turn, `C/C(=N\NC(=O)CSCc1ccc(Cl)cc1)c1ccc2c(c1)OCCO2` yielded a z-score of -0.46.

Turning to `O=S1CC/C(=N\O)c2ccccc21` (stereo not given), the z-score was -0.139.

`COc1ccc(C(=O)NCC(c2cccnc2)N2CCN(c3ccc(F)cc3)CC2)cc1OC` (stereo not given) gave a z-score of 0.582.

On to `O=C1CC(c2ccco2)Cc2nc(NCC3CCCO3)ncc21` (stereo not given), for which the z-score stood at 0.0578.

For the molecule `CCn1c(=O)cc(OCC(=O)N2CCCC2)c2ccccc21`, the z-score was -0.13.

For the molecule `O=C(NCc1ccc(F)cc1)c1cc2n(n1)C(C(F)(F)F)CC(C1CC1)N2` (stereo not given), the z-score is -0.33.

Turning to `N#C/C(=C\c1ccc(-c2ccc(F)cc2)o1)C(=O)Nc1nc(-c2cccs2)cs1`, the z-score was -0.0764.

The molecule `COc1cc(/C=N/NC(=O)c2cccc([N+](=O)[O-])c2)ccc1OCc1ccc(C)cc1` registered a z-score of -0.354.

The molecule `Cc1ccc2nc(NC(=O)Cn3cc4c(n3)CCCCC4)sc2c1` displayed a z-score of 0.178.

The molecule `COc1ccc2c(c1OC)C(=O)N1N=C(c3ccc(Br)cc3)CC21` (stereo not given) displayed a z-score of -1.04.

As for `CN(C)c1ccc(NC(=S)NCC2CCCO2)cc1` (stereo not given), the z-score came out at 0.0583.

As to `O=C(CCc1ccccc1)NNC(=O)c1ccco1`, the z-score turned out to be 0.0453.

Take `O=c1ccc(Oc2nc(N3CCOCC3)nc(N3CCOCC3)n2)nn1-c1ccccc1`: the z-score is 0.115.

`COc1cc(/C(C)=N/NC(=O)Cc2c(C)[nH][nH]c2=O)ccc1O` showed a z-score of -0.267.

`CCOC(=O)C1CCN(C(=O)Nc2cccc(Cl)c2)CC1`: the z-score is -0.63.

`COc1ccccc1N1CCN(C(=O)CSc2ccc3c(C)cc(C)nc3n2)CC1`: the z-score is -0.191.

In turn, `COc1ccccc1N1CCN(CC(=O)N2N=CCC2c2ccccc2)CC1` (stereo not given) displayed a z-score of -0.0236.

`Cc1cccc(NC(=O)CSc2nnc(CSc3nc(C)cc(C)n3)o2)c1` registered a z-score of 1.21.

In turn, `Cc1ccc(C(C)C)c(OCC(=O)c2c(O)c3ccccc3oc2=O)c1` came in with a z-score of 0.32.

`CCOC(=O)N1CCN(S(=O)(=O)c2ccc(OCC)c(C)c2)CC1` had a z-score of 0.489.

Turning to `Clc1ccc(-c2nc3ccccc3n2OCc2ccccc2)cc1`, the z-score was -0.134.

In the case of `Cc1ccccc1NC1=C(Cl)C(=O)OC1OC(=O)c1ccco1` (stereo not given), the z-score is active: -3.39.

As to `O=C(CNC(=O)OCc1ccccc1)NC1CCCCCCC1`, the z-score was -0.0746.

The molecule `CC(=O)N(C)c1ccc(NC(=S)Nc2cccc3ccccc23)cc1` registered a z-score of 0.0902.

`O=C1Nc2ccccc2C12OCCO2` came in with a z-score of -0.0845.
